# Test results as given in PubChem BioAssay AID1468 (National Center for Advancing Translational Sciences (NCATS), 2008).
# Screen size: about 280,000 compounds; about 1,100 (0.39%) were called active. The shares of active, inactive and inconclusive entries below differ from those in the screen. Calls follow the shape of the dose curve; as a rule, active = well fitted inhibition curve with a large enough effect; inconclusive = small, poorly fitted or top-dose-only effect, or effect the other way; inactive = flat fitted curve, though single readings scatter. No potency is given beside an inconclusive call; the fits are too rough.
# Biological target: Microtubule-associated protein tau (Homo sapiens) (UniProt P10636)
# Assay: qHTS for Inhibitors of Tau Fibril Formation, Fluorescence Polarization; also: nearly all actives have a fitted effect of over 55% in size
# Conditions: K18 P301L tau heparin fibrillization, Alexa594 FP, 6 h; series mostly up to 57.7 µM; activity, negative = inhibition: at the top concentration
# How it was run: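 Read-out: fluorescence polarization of Alexa 594-labeled tau (0.24 uM), 555 nm excitation, 632 nm emission. Mixtures held 15 uM unlabeled K18 P301L, compound and 20 uM heparin, pH 7 acetate buffer, incubated 6 hr at 37 C.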
# % is scaled to controls: 0 for no effect and ±100 for the full control effect; potency is read from the fitted curve at half-maximal effect; tags tell the direction and shape of the fitted curve.
# Sequence of UniProt P10636 (P10636 whole entry, looked up): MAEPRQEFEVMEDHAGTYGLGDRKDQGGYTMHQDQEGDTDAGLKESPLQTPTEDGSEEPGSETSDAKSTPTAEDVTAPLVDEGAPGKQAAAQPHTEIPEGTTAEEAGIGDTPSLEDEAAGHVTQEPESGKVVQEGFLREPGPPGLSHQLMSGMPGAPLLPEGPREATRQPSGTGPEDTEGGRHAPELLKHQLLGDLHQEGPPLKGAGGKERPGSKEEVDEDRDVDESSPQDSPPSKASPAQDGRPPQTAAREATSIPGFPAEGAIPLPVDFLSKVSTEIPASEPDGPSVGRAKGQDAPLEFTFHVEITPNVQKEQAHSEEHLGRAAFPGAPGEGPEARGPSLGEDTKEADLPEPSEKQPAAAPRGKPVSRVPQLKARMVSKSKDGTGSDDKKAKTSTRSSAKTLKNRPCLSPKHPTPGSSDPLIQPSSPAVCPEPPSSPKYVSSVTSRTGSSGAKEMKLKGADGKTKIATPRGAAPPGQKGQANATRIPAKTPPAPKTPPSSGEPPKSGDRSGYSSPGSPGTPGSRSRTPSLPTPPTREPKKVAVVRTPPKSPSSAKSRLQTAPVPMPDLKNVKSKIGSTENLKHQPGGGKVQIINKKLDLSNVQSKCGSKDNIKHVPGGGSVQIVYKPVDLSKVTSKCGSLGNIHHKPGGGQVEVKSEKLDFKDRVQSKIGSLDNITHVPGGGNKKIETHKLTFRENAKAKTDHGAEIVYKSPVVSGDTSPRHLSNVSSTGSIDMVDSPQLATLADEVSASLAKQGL
Structure (SMILES),"activity, negative = inhibition",Potency
CC(=O)Nc1ccc(NC(=O)C2CCC(CNS(=O)(=O)c3cccc4nsnc34)CC2)cc1 (configuration not stated),inactive: -5.98%,
O=C(Nc1ccc2nc(SCC(=O)N3CCOCC3)sc2c1)c1ccc(Br)cc1,,"inconclusive [inhibitor, partial curve]"
O=C1CN(C(=O)CNC(=O)c2cccc(Cl)c2)c2ccccc2N1,inactive: 0.956%,
COc1ccc(C(=O)Nc2cc(-c3nc4ccccc4s3)ccc2OC)cc1,,"inconclusive [inhibitor, partial curve]"
COc1cccc(CNC(=O)C(=O)NCC(c2ccc3c(c2)OCO3)N2CCOCC2)c1 (configuration not stated),inactive: -6.56%,
COc1ccc(OC)c(CNC(=O)CN2N=C(c3ccc(Cl)cc3)CCC2=O)c1,inactive: -5.43%,
Cc1cc(C(=O)N/N=C/c2ccc(O)c([N+](=O)[O-])c2)n[nH]1,inactive: -4.6%,
O=C(COc1ccc([N+](=O)[O-])cc1)Nc1ccc(C(=O)Nc2ccccc2C(=O)O)cc1,,"inconclusive [inhibitor, single point]"
COc1ccc([N+](=O)[O-])cc1NC(=O)CC(c1ccccc1)c1ccccc1,,"inconclusive [inhibitor, single point]"
O=C(O)CC12CSc3[nH]c(=O)sc3C1c1ccccc1OC2=O (configuration not stated),,"inconclusive [inhibitor, partial curve, poor fit]"
Cc1c(C(=O)Nc2ccc(F)c(C(F)(F)F)c2)sc2nc(-c3ccccc3)cn12,,"inconclusive [inhibitor, partial curve]"
Nc1ccc(-c2n[nH]c(=O)c3ccccc23)cc1N,inactive: 6.58%,
CSc1cccc(NC(=S)N(CCCN2CCCC2)Cc2cccs2)c1,,"inconclusive [inhibitor, partial curve, poor fit]"
CCCC(=O)N(c1ccc2oc(=O)sc2c1)S(=O)(=O)c1cccs1,,"inconclusive [inhibitor, single point]"
CC(=O)N1CC(=O)N=C1SCC(=O)Nc1nc(-c2ccccc2)c(-c2ccccc2)s1,,"inconclusive [inhibitor, single point]"
COc1ccc(C(=O)Nc2ccc3nc(SCC(=O)N(C)c4ccccc4)sc3c2)cc1,,"inconclusive [inhibitor, partial curve]"
O=C(CSc1cn(CCNC(=O)c2cccc(C(F)(F)F)c2)c2ccccc12)Nc1ccc2c(c1)OCCO2,,"inconclusive [inhibitor, single point]"
O=C(Nc1ccc(Cl)c(Cl)c1)Nc1ccccc1NS(=O)(=O)c1cccs1,,active: 14.1 µM
Cc1cc(C)c(NC(=O)Cn2c(=O)n(CCC(=O)NCc3ccccc3Cl)c(=O)c3sccc32)c(C)c1,,"inconclusive [inhibitor, partial curve]"
COc1ccc(-c2cn3nc(N4CCC(C(=O)Nc5cc(Cl)ccc5C)CC4)sc3n2)cc1,inactive: 1.23%,
C[n+]1cc2c3c(ccc2c2ccc4cc5c(cc4c21)OCO5)OCO3,,"inconclusive [inhibitor, single point]"
Cc1cc(Cl)ccc1N(CC(=O)NCCSCc1ccco1)S(C)(=O)=O,,"inconclusive [inhibitor, full curve, poor fit]"
COc1ccc(NC(=O)CCCn2c(=O)c3cccn3c3cccnc32)cc1Cl,inactive: -7.36%,

Structure (SMILES),"activity, negative = inhibition",Potency
CC(C)(C)c1ccc(/C=C2\SC(=O)N(CCNC(=O)c3cccc(S(=O)(=O)N4CCOCC4)c3)C2=O)cc1,inactive: 5%,
Cn1c(N)c(C(=O)COC(=O)c2ccccn2)c(=O)n(C)c1=O,inactive: -7.14%,
Cc1ccc(NC(=O)Cn2cnc3onc(-c4ccc(F)cc4)c3c2=O)c(Cl)c1,,"inconclusive [inhibitor, partial curve]"
COc1cc(C(=O)N/N=C/c2sc(=O)n(-c3ccccc3)c2Cl)cc(OC)c1OC,,"inconclusive [inhibitor, single point]"
COc1ccc(N(CC(=O)NC2CCCCC2)C(=O)CNC(=O)c2ccco2)cc1OC,inactive: -0.917%,
Cc1[nH]c2ccccc2c1C(=O)CSc1ccccc1,,"inconclusive [inhibitor, full curve, poor fit]"
COc1ccc2c(c1)OCC(Cc1ccc(O)c(OC)c1)C2=O (configuration not stated),,"inconclusive [inhibitor, full curve, poor fit]"
COc1ccccc1NC(=O)Nc1cc(NC(=O)Nc2ccccc2OC)c(C)nc1C,,"inconclusive [inhibitor, partial curve]"
O=C(Nc1ccc(Oc2ccc3ccccc3c2)cc1)c1ccco1,,"inconclusive [inhibitor, partial curve, poor fit]"
CN(C)N=Nc1ccc2nc[nH]c2c1,,active: 8.91 µM
Cc1cc(C)cc(NC(=O)c2ccc([N+](=O)[O-])o2)c1,inactive: 9.59%,
CCCN(CCC)C(=O)Cn1c(=O)n(CCCCCC(=O)NCc2ccc3c(c2)OCO3)c(=O)c2sccc21,inactive: -6.23%,
O=C(CCc1ccccc1)NC(NC(=S)Nc1cccc(Cl)c1)C(Cl)(Cl)Cl (configuration not stated),,active: 14.1 µM
COc1ccccc1-c1cc(C(=O)NCc2ccccc2)c2c(-c3ccc(C)cc3)[nH]nc2n1,,"inconclusive [inhibitor, partial curve, poor fit]"
COc1ccc(NC(=O)c2oc3ccccc3c2NC(=O)Cc2coc3c(C)c(C)ccc23)cc1,,"inconclusive [inhibitor, partial curve]"
COc1ccc(-c2nc3cc(NC(=O)CSc4ccc(C)cc4)ccc3o2)cc1,,"inconclusive [inhibitor, partial curve]"
O=C(Nc1ccc(N2CCOCC2)c(Cl)c1)c1ccc(Cl)cc1,,"inconclusive [activator, partial curve]"
COc1cccc(NC(=O)Cn2cc(C(=O)c3ccc(C)cc3)c(=O)c3cc(OC)ccc32)c1,,"inconclusive [inhibitor, partial curve, poor fit]"
Cc1ccccc1NC(=O)Cn1c(=O)n(Cc2ccc3c(c2)OCO3)c(=O)c2ccccc21,,"inconclusive [inhibitor, partial curve, poor fit]"
Cc1c(Cl)cccc1NC(=O)CCS(=O)(=O)c1ccc2c(c1)CC(=O)N2C,inactive: 2.2%,
Cc1nc(C(=O)NNC(=O)c2ccc(C(F)(F)F)cc2)cs1,inactive: 4.39%,
Cc1cccc(NC(=O)NCc2ccc3[nH]c(C)cc3c2)c1,,"inconclusive [activator, partial curve, poor fit]"
Cc1nc(NC(=O)c2ccccc2)sc1-c1csc(Nc2ccc(F)cc2)n1,,"inconclusive [activator, single point]"

Structure (SMILES),"activity, negative = inhibition",Potency
Cc1onc(-c2ccccc2)c1C(=O)NC(=S)NNC(=O)c1ccccc1O,,"inconclusive [activator, partial curve]"
CCN=c1scc(-c2ccco2)n1/N=C/c1ccc(OC)c(O)c1,,"inconclusive [activator, partial curve, poor fit]"
COC(=O)c1c(-c2cccs2)csc1NC(=O)COc1ccc(C)cc1,inactive: -3.71%,
Cc1ccc(S(=O)(=O)N(C)CC(=O)OCC(=O)NC(=O)Nc2ccc3c(c2)OCCO3)cc1,inactive: 4.23%,
COc1ccc(CC(=O)OCC(=O)Nc2cccc(Br)c2)cc1,,"inconclusive [inhibitor, single point]"
COc1cccc(NC(=O)CN(CCc2ccccc2)S(=O)(=O)c2ccc(Cl)cc2)c1,,"inconclusive [inhibitor, partial curve]"
O=c1c(NCc2cccs2)nccn1-c1ccc(F)cc1,inactive: 1.5%,
Cc1cc(NCc2ccccc2)nc(-c2ccccc2O)n1,,"inconclusive [inhibitor, partial curve]"
CCOC(=O)CSc1nc2ccc(NC(=O)c3cccc(F)c3)cc2s1,,"inconclusive [inhibitor, partial curve]"
CC(=O)Nc1cccc(OCC(=O)NS(=O)(=O)c2ccc(C)cc2)c1,inactive: 12.3%,
Cc1cc2c(n1-c1ccc(C(=O)NCc3ccccc3Cl)cc1)CCCC2,,"inconclusive [inhibitor, single point]"
C[C@@H](C(=O)NCCc1c[nH]c2ccccc12)[C@H]1C[C@]1(C)[C@H](NC(=O)OCc1ccccc1)c1ccccc1,,"inconclusive [activator, single point]"
Cc1ccc(/C([O-])=C(/C(=S)NCc2ccc3c(c2)OCO3)[n+]2ccc(N(C)C)cc2)c(C)c1,inactive: 1.4%,
COc1ccc([C@H]2CC(=O)c3c(O)cc(O)cc3O2)cc1O,inactive: -2.12%,
COc1cc(OC)c(N(C)S(=O)(=O)c2cccc(C(=O)OCC(=O)c3c[nH]c4ccccc34)c2)cc1Cl,,active: 12.6 µM
Cc1cc(C)c(S(=O)(=O)NCC(c2ccc(N(C)C)cc2)N2CCOCC2)c(C)c1 (configuration not stated),inactive: 0.937%,
Cc1ccc2oc(=O)n(CCCOc3ccccc3Cl)c2c1,,"inconclusive [inhibitor, single point]"
COc1ccccc1-c1noc(-c2ccc(NCC3CCCO3)c([N+](=O)[O-])c2)n1 (configuration not stated),,"inconclusive [inhibitor, partial curve, poor fit]"
FC(F)(F)c1ccc(NC(=S)NCc2ccccc2)cc1,,"inconclusive [inhibitor, single point]"
O=C(CSc1nc(-c2ccc(F)cc2)[nH]c1-c1ccc(F)cc1)Nc1ccc2c(c1)OCO2,,"inconclusive [inhibitor, single point]"
O=C(Cn1cc(S(=O)(=O)c2ccccc2)c(=O)c2cc(Cl)ccc21)Nc1ccc2c(c1)OCO2,,"inconclusive [inhibitor, partial curve]"
